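Interpolation was linear, between the two tested concentrations surrounding the appropriate level; five concentrations were tested over 48 hours in 96-well plates. The concentration for 50% growth inhibition is given as GI50. The concentration for full growth arrest is given as TGI.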

The assay deals with NCI-H322M lung. The assay is described as follows: NCI tumour cell line growth inhibition, 48 h.
As for `Cc1ccc(C(=O)CSc2nc3ccc(F)cc3c(=O)n2-c2ccc(Cl)cc2)cc1`, the GI50 is over 100 µM and the TGI is over 100 µM.

On to `CS(=O)(=O)Nc1cc(-c2ccc3ncnc(N4CCc5cc(F)c(Cl)cc54)c3c2)cnc1Cl`, for which the GI50 was 1.12 µM and the TGI came to 6.92 µM.

For the compound `CN1CCN(c2ccc(C(=O)/C=C/c3cc(Br)ccc3F)cc2)CC1`, the GI50 was 17.5 µM and the TGI amounted to 31.8 µM.
